The results in this text go back to patent publication US20230129812A1 (ACCELERON PHARMA, published 2023).

Some results are limits rather than exact numbers.

The target of assay [1] is T1, activin A (UniProt P08476 311-426).
T1 construct: also called ActA
T1 sequence (looked up): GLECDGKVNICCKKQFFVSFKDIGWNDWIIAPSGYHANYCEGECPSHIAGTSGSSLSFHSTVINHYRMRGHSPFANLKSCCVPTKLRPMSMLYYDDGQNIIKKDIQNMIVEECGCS
Nature of the assay: SPR (Biacore); receptor-Fc captured by anti-Fc antibody, ligand injected. As to the method: (§1) A Biacore™-based binding assay was used to compare ligand binding selectivity of the ActRIIA-Fc:ALK4-Fc heterodimeric complex described above with that of ActRIIA-Fc and ALK4-Fc homodimeric complexes. The ActRIIA-Fc:ALK4-Fc heterodimer, ActRIIA-Fc homodimer, and ALK4-Fc homodimer were independently captured onto the system using an anti-Fc antibody. Ligands were injected and allowed to flow over the captured receptor protein. Results are summarized in Table 14 below, in which ligand off-rates (kd) most indicative of effective ligand traps are denoted in bold.
For orientation: In SPR one partner is held on a chip, and binding of the other changes the refractive index at the surface.

The target in the next assay is T2, BMP6 (UniProt P22004 375-513, limits assumed).
T2 sequence (looked up): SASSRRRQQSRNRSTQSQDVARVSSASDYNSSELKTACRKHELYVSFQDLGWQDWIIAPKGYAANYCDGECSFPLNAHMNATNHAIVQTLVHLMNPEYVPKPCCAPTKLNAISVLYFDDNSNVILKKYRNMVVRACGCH
The assay is described as above. As to the method:
as §1

The target of the next assay is T3, BMP10 (UniProt O95393 317-424).
T3 sequence (looked up): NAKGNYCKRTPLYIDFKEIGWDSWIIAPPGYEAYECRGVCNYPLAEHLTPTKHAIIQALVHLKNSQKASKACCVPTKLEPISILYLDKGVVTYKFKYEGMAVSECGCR
The description is as above. The procedure:
as §1

For a further assay, the target named is T4, activin AB (UniProt P08476 311-426; P09529 293-407).
T4 sequence (looked up) 1: T1 sequence (looked up)
T4 sequence (looked up) 2: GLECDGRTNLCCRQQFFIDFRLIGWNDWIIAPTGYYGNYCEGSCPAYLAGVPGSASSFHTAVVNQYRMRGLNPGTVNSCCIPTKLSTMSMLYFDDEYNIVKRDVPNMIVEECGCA
Described as above. The procedure:
as §1

In a further assay the target is T5, GDF8 (UniProt O14793 267-375).
T5 construct: also called myostatin
T5 sequence (looked up): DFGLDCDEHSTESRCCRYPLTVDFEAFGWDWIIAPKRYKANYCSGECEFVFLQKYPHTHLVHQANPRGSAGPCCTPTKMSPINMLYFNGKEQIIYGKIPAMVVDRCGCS
The description is as above. As to the method:
as §1

In assay [2] the target is T6, GDF11 (UniProt O95390 299-407).
T6 construct: also called BMP11
T6 sequence (looked up): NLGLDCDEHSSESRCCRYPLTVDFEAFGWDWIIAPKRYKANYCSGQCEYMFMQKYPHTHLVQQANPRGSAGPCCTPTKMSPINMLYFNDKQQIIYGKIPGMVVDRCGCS
The assay is described as above. As to the method: as §1

In the next assay the target is T7, BMP7 (UniProt P18075 293-431).
T7 sequence (looked up): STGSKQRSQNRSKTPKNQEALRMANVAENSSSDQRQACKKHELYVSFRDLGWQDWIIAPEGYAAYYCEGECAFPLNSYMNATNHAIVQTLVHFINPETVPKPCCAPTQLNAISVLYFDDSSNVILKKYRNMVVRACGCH
The description is as above. The procedure:
as §1

For a further assay, the target named is T8, activin B (UniProt P09529 293-407).
T8 sequence (looked up): T4 sequence (looked up) 2
The assay is described as above. The procedure: as §1

A further assay has as its target T9, GDF3 (UniProt Q9NR23 251-364).
T9 construct: also called VGR2
T9 sequence (looked up): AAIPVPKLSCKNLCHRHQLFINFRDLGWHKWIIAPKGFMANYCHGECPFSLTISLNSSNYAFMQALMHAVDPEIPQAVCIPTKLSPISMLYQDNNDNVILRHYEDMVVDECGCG
The description is as above. The procedure:
as §1

The next assay deals with T10, activin AC (UniProt P08476 311-426; P55103 237-352).
T10 sequence (looked up) 1: T1 sequence (looked up)
T10 sequence (looked up) 2: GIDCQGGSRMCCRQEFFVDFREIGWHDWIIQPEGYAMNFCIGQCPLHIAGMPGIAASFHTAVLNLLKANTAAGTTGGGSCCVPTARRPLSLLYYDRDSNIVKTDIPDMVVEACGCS
Described as above. The procedure: as §1

In assay [3] the target is T6, GDF11. Nature of the assay: SPR (Biacore); receptor-Fc captured by anti-Fc antibody, ligand injected; receptor-Fc captured by anti-Fc antibody, GDF11 injected (not GDF11 amine-coupled to the chip as in paragraph 434). As to the method:
as §1

The target in assay [4] is T1, activin A. Description: Biacore; activin A immobilised on a CM5 chip by amine coupling, ActRIIA-hFc injected over it; top panel 'ActRIIa Binding to Activin', six sensorgrams, the highest reaching about 140 RU at about 180 s with almost no decay up to 400 s. The procedure:
(§2) GDF11 or activin A were immobilized on a Biacore™ CM5 chip using standard amine-coupling procedure. ActRIIA-hFc and ActRIIA-mFc proteins were loaded onto the system, and binding was measured. […] Using a similar binding assay, ActRIIA-hFc was determined to have high to moderate affinity for other TGF-beta superfamily ligands including, for example, activin B, GDF8, BMP6, and BMP10. ActRIIA-mFc behaved similarly.

For assay [5], the target named is T6, GDF11. Description: Biacore; GDF11 immobilised on a CM5 chip by amine coupling, ActRIIA-hFc injected over it; bottom panel 'ActRIIa Binding to GDF11', five sensorgrams, the highest reaching about 35 RU at about 180 s and falling visibly up to 400 s. The procedure: as §2
Another assay concerns the target T11, BMP9 (UniProt Q9UK05 320-429).
T11 construct: also called GDF2
T11 sequence (looked up): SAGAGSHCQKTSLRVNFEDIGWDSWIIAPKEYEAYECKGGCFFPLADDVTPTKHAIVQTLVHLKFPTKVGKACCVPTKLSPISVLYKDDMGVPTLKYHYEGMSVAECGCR
Nature of the assay: SPR (Biacore); receptor-Fc captured by anti-Fc antibody, ligand injected. As to the method:
as §1

B1: ActRIIA-Fc homodimer (Fc fusion)
chain: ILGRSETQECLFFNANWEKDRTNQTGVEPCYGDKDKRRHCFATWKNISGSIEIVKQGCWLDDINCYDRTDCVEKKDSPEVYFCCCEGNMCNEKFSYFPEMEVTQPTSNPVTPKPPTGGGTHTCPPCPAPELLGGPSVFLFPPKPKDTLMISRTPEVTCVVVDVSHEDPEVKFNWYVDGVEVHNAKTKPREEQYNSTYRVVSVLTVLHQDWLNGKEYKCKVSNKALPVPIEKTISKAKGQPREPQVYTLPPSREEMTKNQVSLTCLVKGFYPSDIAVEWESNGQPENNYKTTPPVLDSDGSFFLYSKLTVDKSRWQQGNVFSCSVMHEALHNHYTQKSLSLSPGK
By Kd is commonly meant the free concentration of one partner at which half of the binding sites on the other are occupied at equilibrium, for simple one-to-one binding. A high value points to weaker binding. The term koff denotes the first-order rate constant of dissociation. For orientation: kon means a measure of how fast the partners come together. Consider B1, for which the dissociation constant Kd was 0.045 nM in the assay with activin A [1]; 0.8 nM with BMP6; 0.085 nM in the assay with BMP10; 0.009 nM in the assay with activin AB; 3.7 nM with BMP7; 0.01 nM with activin B. The Kd is 2.4 nM in the assay with GDF3, 0.36 nM with activin AC and 0.013 nM with GDF11 [3]. The koff in the assay with activin A [1] was 0.00062 s⁻¹; in the assay with BMP6, 0.022 s⁻¹; in the assay with BMP10 it was 0.0025 s⁻¹; with activin AB it was 0.00026 s⁻¹; in the assay with GDF8 it was 0.0014 s⁻¹; with GDF11 [2] it was 0.00092 s⁻¹. Further, the koff was found to be 0.033 s⁻¹ with BMP7, 0.00011 s⁻¹ with activin B, 0.0036 s⁻¹ with GDF3 and 0.0079 s⁻¹ in the assay with activin AC. Besides, the kon with activin A [1] came out at 1.4e+07 M⁻¹ s⁻¹; with BMP6, 2.7e+07 M⁻¹ s⁻¹; with BMP10, 2.9e+07 M⁻¹ s⁻¹; with activin AB, 2.8e+07 M⁻¹ s⁻¹; in the assay with GDF8 it was 1.4e+07 M⁻¹ s⁻¹; in the assay with GDF11 [2], 7.3e+07 M⁻¹ s⁻¹. Further, the kon with BMP7 was determined as 8.9e+06 M⁻¹ s⁻¹; in the assay with activin B, 1.1e+07 M⁻¹ s⁻¹; with GDF3, 1.5e+06 M⁻¹ s⁻¹; with activin AC it was 2.2e+07 M⁻¹ s⁻¹.

B2: ActRIIA-hFc (Fc fusion)
chain: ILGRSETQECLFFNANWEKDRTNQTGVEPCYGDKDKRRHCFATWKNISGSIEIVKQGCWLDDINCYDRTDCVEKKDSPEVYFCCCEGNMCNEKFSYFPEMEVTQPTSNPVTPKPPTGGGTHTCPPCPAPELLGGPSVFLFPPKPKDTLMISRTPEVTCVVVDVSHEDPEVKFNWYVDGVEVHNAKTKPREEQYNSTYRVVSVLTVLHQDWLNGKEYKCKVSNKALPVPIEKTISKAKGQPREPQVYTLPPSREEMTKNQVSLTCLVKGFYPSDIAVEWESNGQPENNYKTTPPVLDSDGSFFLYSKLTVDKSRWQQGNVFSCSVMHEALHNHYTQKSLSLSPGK
notes: also called ActRIIA-hFc fusion protein
On to B2, for which the Kd was 0.005 nM with activin A [4] and 9.96 nM with GDF11 [5].

B3: ActRIIA-Fc:ALK4-Fc heterodimer (Fc fusion)
chain 1: [omitted - about 120 residues][omitted - about 250 residues]
chain 2: SGPRGVQALLCACTSCLQANYTCETDGACMVSIFNLDGMEHHVRTCIPKVELVPAGKPFYCLSSEDLRNTHCCYTDYCNRIDLRVPSGHLKEPEHPSMWGPVETGGGTHTCPPCPAPELLGGPSVFLFPPKPKDTLMISRTPEVTCVVVDVSHEDPEVKFNWYVDGVEVHNAKTKPREEQYNSTYRVVSVLTVLHQDWLNGKEYKCKVSNKALPAPIEKTISKAKGQPREPQVYTLPPSREEMTKNQVSLTCLVKGFYPSDIAVEWESNGQPENNYDTTPPVLDSDGSFFLYSDLTVDKSRWQQGNVFSCSVMHEALHNHYTQKSLSLSPG
notes: also called ActRIIA-Fc:ALK4-Fc heterodimeric complex
For the molecule B3, the Kd in the assay with activin A [1] was 0.032 nM; with BMP6 it was 2.2 nM; in the assay with BMP10 it was greater than 6 nM; with activin AB it was 0.013 nM; in the assay with GDF8, 0.15 nM; in the assay with GDF11 [2], 0.022 nM. Moreover, the Kd amounted to 3.5 nM with BMP7, 0.05 nM with activin B, 9.8 nM with GDF3 and 0.17 nM with activin AC. Also, the off-rate (koff) with activin A [1] came out at 0.00024 s⁻¹; in the assay with BMP6, 0.012 s⁻¹; with activin AB it was 0.00023 s⁻¹; with GDF8, 0.0028 s⁻¹; with GDF11 [2], 0.00065 s⁻¹; in the assay with BMP7 it was 0.072 s⁻¹. The koff with activin B is 0.00048 s⁻¹; with GDF3, 0.0048 s⁻¹; in the assay with activin AC, 0.00054 s⁻¹. In addition, the kon with activin A [1] was 7.4e+06 M⁻¹ s⁻¹; in the assay with BMP6, 5.4e+06 M⁻¹ s⁻¹; with activin AB, 1.8e+07 M⁻¹ s⁻¹; in the assay with GDF8 it was 1.8e+07 M⁻¹ s⁻¹; in the assay with GDF11 [2] it was 3e+07 M⁻¹ s⁻¹; with BMP7 it was 2e+07 M⁻¹ s⁻¹. Also, the kon in the assay with activin B turned out to be 9.5e+06 M⁻¹ s⁻¹; in the assay with GDF3, 490000 M⁻¹ s⁻¹; in the assay with activin AC it was 3.2e+06 M⁻¹ s⁻¹. The binding result with BMP9 was “no binding”.
